Experimental data from PubChem BioAssay AID686978 (National Center for Advancing Translational Sciences (NCATS), 2013).
Screen size: about 420,000 compounds; about 64,000 (15%) were called active. This list was built around the results that the source calls inconclusive (neither active nor inactive); the mix of calls is not that of the screen. Calls follow the shape of the dose curve; as a rule, active = well fitted inhibition curve with a large enough effect; inconclusive = small, poorly fitted or top-dose-only effect; inactive = flat fitted curve, though single readings scatter. No potency is given beside an inconclusive call; the fits are too rough.

assay: qHTS for Inhibitors of human tyrosyl-DNA phosphodiesterase 1 (TDP1): qHTS in cells in absence of CPT; details: DT40 Tdp1-/- hTDP1 cells, no CPT, ATP luminescence, 48 h; activity change, negative = growth inhibition: at 46.2 µM (top of the series); also: nearly all actives have a fitted effect of over 55% in size
Method in brief: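 Stably hTDP1-transfected Tdp1-null chicken DT40 cells were treated with library compounds minus camptothecin and grown for at least 48 hr at 37 °C, after which cellular ATP was quantified by luminescence.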
% is scaled to controls: 0 for no effect and ±100 for the full control effect; potency is read from the fitted curve at half-maximal effect; tags tell the direction and shape of the fitted curve.

| SMILES | Potency | activity change, negative = growth inhibition |
| --- | --- | --- |
| Cn1c(-c2ccc(C(C)(C)C)cc2)n[nH]c1=S | inconclusive [inhibitor, single point] | – |
| COc1ccc(-c2cnc3c(NC(C)=O)cc(-c4ccc(C(=O)N5CCOCC5)cc4)cn23)cc1OC | active: 23.1 µM | – |
| CCCC(c1nnnn1C1CCCC1)N1CCN(c2ccccc2F)CC1 (centres undefined) | active: 23.1 µM | – |
| O=C(Nc1ccc(Cl)cc1)C1=Cc2cc(Cl)ccc2OC1 | active: 25.9 µM | – |
| CCOc1ccc(C2NC(=O)CCC2[N+](=O)[O-])cc1 (centres undefined) | inactive | – |
| COc1cc(CN(C2CCCCC2C)S(=O)(=O)c2ccc(S(=O)(=O)NC3CC3)cc2)cc(OC)c1OC (centres undefined) | inconclusive [inhibitor, single point] | – |
| Cc1cc(S(=O)(=O)Nc2cc(C)c(O)c(C)c2)c(C)s1 | active: 2.91 µM | – |
| CC(C)NC(=O)[C@@H]1C[C@@H](Sc2nc3ccccc3[nH]2)CN1C1Cc2ccccc2C1 | inconclusive [inhibitor, partial curve, poor fit] | – |
| O=C(Cn1c(=O)c2sccc2n(Cc2cccc([N+](=O)[O-])c2)c1=O)NCCc1ccccc1 | inconclusive [inhibitor, partial curve] | – |
| CCOC(=O)C1C(C(=O)OC)=C(C2=CCCCC2)c2ccccc2N1S(=O)(=O)C(F)(F)F (centres undefined) | inconclusive [inhibitor, single point] | – |
| CC(C)Oc1ccc(/C(O)=C2/C(=O)C(=O)N(CCN(C)C)C2c2cccs2)cc1 (centres undefined) | inactive | – |
| Cc1cc2nccc(-c3ccc(Cl)c([N+](=O)[O-])c3)n2n1 | inconclusive [inhibitor, partial curve] | – |
| Cc1cc(C)cc(NC(=O)Cn2cc(C=O)c3ccccc32)c1 | inconclusive [inhibitor, partial curve, poor fit] | – |
| CCn1c(=O)c2cc(C(=O)NCCN(C)C)sc2c2ccccc21 | inconclusive [inhibitor, single point] | – |
| CCc1cc(SC#N)cc(C)c1NC(=O)CCl | active: 1.64 µM | – |
| CCN(CC)C(=O)c1sc(N)c(C#N)c1C | inactive | – |
| CC(NC(=S)Nc1ccccc1)C(c1cccs1)N1CCOCC1 (centres undefined) | inconclusive [inhibitor, single point] | – |
| C=CCN(CC=C)c1ccc(/C=C/c2ccnc3ccccc23)cc1 | inconclusive [inhibitor, single point] | – |
| NC(Cc1ccc(C(F)(F)F)cc1)c1csc(Nc2ccc(C(=O)NCc3ccco3)cn2)n1 (centres undefined) | inconclusive [inhibitor, single point] | – |
| CC1Sc2ccc(S(=O)(=O)CCC(=O)NCc3ccccc3Cl)cc2NC1=O (centres undefined) | – | inconclusive: -34.2% [inhibitor] |
| Cc1c(C(=O)NCc2ccc(Cl)cc2)sc2nc3n(c(=O)c12)CCC3 | inconclusive [inhibitor, single point] | – |
| Nc1c(-c2ccc(Cl)cc2)cnc2c(-c3ccccc3)cnn12 | inactive | – |
| CSc1nc2sc3c(c2c(=O)[nH]1)CCc1ccccc1-3 | inactive | – |
| Cc1nc2n(COCCO)cnn2c(=O)c1Br | inactive | – |
| COc1cc([C@@H]2Nc3c(F)cccc3[C@@H]3C=CC[C@@H]32)cc(Br)c1OC | inconclusive [inhibitor, single point] | – |

| SMILES | Potency | activity change, negative = growth inhibition |
| --- | --- | --- |
| CCCc1cc(C(=O)N2CCCC(CO)(CCCc3ccccc3)C2)n(C)n1 (centres undefined) | inconclusive [inhibitor, single point] | – |
| CC(C)c1ccc(OCC(=O)NC(C)c2ccccc2)cc1 (centres undefined) | inconclusive [inhibitor, partial curve, poor fit] | – |
| Cc1c(C(=O)O)oc2c1-c1nn(Cc3ccccc3Cl)cc1CC2 | inconclusive [inhibitor, single point] | – |
| COc1ccc(Nc2nc(N)nc(CSc3n[nH]c(-c4ccccc4)n3)n2)cc1 | inconclusive [inhibitor, single point] | – |
| Cc1cccc(N/C=C/C(=C(C#N)C#N)N(C)C)c1 | inconclusive [inhibitor, single point] | – |
| Cc1ccc2nc(NCC(N)=O)nc(-c3ccccc3)c2c1 | inactive | – |
| CC(C)(C)SCCNC(=O)c1cccc([N+](=O)[O-])c1 | inactive | – |
| CC(C)c1ccc(NC(=O)Nc2cc3sccc3n2C)cc1 | inconclusive [inhibitor, single point] | – |
| CO/C=C\C=C/c1nnn(-c2ccc(Cl)cc2)n1 | active: 23.1 µM | – |
| Cc1nc(NC(=O)CSc2cc(C)c3ccccc3n2)c(Cl)cc1Cl | inconclusive [inhibitor, partial curve] | – |
| COc1ccc(NC(=O)N(C)C[C@H]2OCc3cnnn3CCCC(=O)N([C@@H](C)CO)C[C@H]2C)cc1 | inactive | – |
| O=C(Nc1ccc(C(=O)N2CCCC2)cc1)c1ccccc1F | inconclusive [inhibitor, partial curve] | – |
| COc1ccc(/C=C/c2onc(C)c2S(=O)(=O)N2CCC(C(=O)N3CCCCCC3)CC2)cc1 | inconclusive [inhibitor, single point] | – |
| C=CCOC(=O)C1=C[C@H](c2ccccc2)[C@@H](CCCO)[C@H](OCC)O1 | – | inconclusive: -31.4% [inhibitor] |
| O=C1OCCN1C(=O)[C@H]1[C@H](c2ccccc2)C(c2cccc(Cl)c2)=NN1c1ccc(Br)cc1 | inactive | – |
| CCc1cc[n+](-c2nc([O-])sc2C=O)cc1 | inactive | – |
| O=C(NC(=O)N1CCN(c2ccc([N+](=O)[O-])cn2)CC1)c1ccccc1F | active: 9.2 µM | – |
| COc1ccc(NC(=O)COC(=O)c2cc(C)oc2C)c([N+](=O)[O-])c1 | inconclusive [inhibitor, single point] | – |
| COc1ccc(-c2csc(NC(=S)NC(=O)/C=C/c3ccco3)n2)cc1Br | active: 3.66 µM | – |
| O=C(O)c1cccc(NC(=S)N/N=C/c2ccccc2OCc2ccc(Br)cc2)c1 | – | inconclusive: -31.9% [inhibitor] |
| CSc1ccc(Cl)c(C(=O)OCC(=O)N2CC(C)OC(C)C2)c1 (centres undefined) | inactive | – |
| COc1ccc2c(Sc3ccc(C)cc3)c(C(=O)NC(C)c3ccccc3)[nH]c2c1 (centres undefined) | inconclusive [inhibitor, single point] | – |
| O=C(C[n+]1ccncc1)c1cccc([N+](=O)[O-])c1 | inactive | – |
| CCc1c(C)nc2c(-c3ccccc3)c(C)nn2c1Nc1ccc(NC(C)=O)cc1 | inconclusive [inhibitor, single point] | – |
| N#C/C(=C/c1ccc(N2CCOCC2)o1)C(=O)NC1CCCCC1 | inconclusive [inhibitor, single point] | – |

| SMILES | Potency | activity change, negative = growth inhibition |
| --- | --- | --- |
| CC(C)NC(=O)NC(=O)CSc1nnc(-c2ccccc2F)n1N | inactive | – |
| COc1ccc(NC(=O)c2ccc3c(c2)S(=O)(=O)c2ccccc2C3=O)cc1 | inactive | – |
| Cc1ccc(OCCOCCN(C)C)c(Cl)c1 | inactive | – |
| N/C(=N/OC(=O)c1ccc(Cl)cc1)c1ncc([N+](=O)[O-])s1 | active: 20.6 µM | – |
| O=C(NCc1ccco1)c1sc2ccccc2c1Cl | inconclusive [inhibitor, single point] | – |
| COc1ccc(S(=O)(=O)N2CCN(C(=O)Cc3ccsc3)CC2)cc1 | inconclusive [inhibitor, single point] | – |
| O=C(O)CCC(=O)Nc1ccc(C(=O)N2CCCCC2)cc1 | inactive | – |
| COc1ccc(-c2nc3ccccc3c(=O)n2CCOc2cc(C)ccc2C)cc1 | inconclusive [inhibitor, partial curve] | – |
| CC(=O)Nc1cc(-c2cccc(C(=O)NCCN(C)C)c2)cn2c(-c3ccc(S(C)(=O)=O)cc3)cnc12 | inactive | – |
| Cc1[nH]c2ccccc2c1C(=O)C(=O)N1CCN(c2ccccc2F)CC1 | inconclusive [inhibitor, single point] | – |
| COc1cccc(CNC(=O)c2cc(COc3c(F)cccc3F)on2)c1 | inactive | – |
| O=C(c1ccc(F)cc1)C1CCN(C(=O)c2ccccc2F)CC1 | inconclusive [inhibitor, single point] | – |
| O=C(NCc1ccccc1)c1cc2ccc(O)cc2oc1=O | inconclusive [inhibitor, single point] | – |
| CCN1CCN(c2nc(-c3cccnc3)nc3ccccc23)CC1 | inactive | – |
| COc1ccc(Br)cc1C(=O)Nc1cccc2ncccc12 | inconclusive [inhibitor, single point] | – |
| Nc1nonc1-n1nnc(C(=O)N/N=C/c2ccc(Cl)cc2Cl)c1CN1CCCC1 | inactive | – |
| COc1cc(C(=O)Oc2ccc(/C=N/NC(=O)c3ccncc3)cc2)cc(OC)c1OC | inactive | – |
| CC(Oc1cccnc1[N+](=O)[O-])C(=O)Nc1ccc(Cl)cn1 (centres undefined) | inactive | – |
| Cc1ccc(N2C(=O)C(CC(=O)Nc3ccc(F)cc3)N(Cc3ccc4c(c3)OCO4)C2=O)cc1 (centres undefined) | active: 16.4 µM | – |
| Cc1ccc2cccc(S(=O)(=O)N3CCN(c4cccc(Cl)c4)CC3)c2n1 | inconclusive [inhibitor, single point] | – |
| CCC(Sc1nc(N)c(NC(=O)c2ccc(Br)o2)c(=O)[nH]1)C(=O)O (centres undefined) | inactive | – |
| CN1CCN(c2ncc3nc(-c4cn(C)c5ccccc45)c(=O)n(CCC#N)c3n2)CC1 | inconclusive [inhibitor, single point] | – |
| COc1ccc(C)cc1NC(=O)CSc1nnc(-c2ccc(C)cc2)o1 | inconclusive [inhibitor, single point] | – |
| O=C(N/N=C/c1ccc(N2CCOCC2)cc1)c1ccc(O)cc1 | – | inconclusive: -30% [inhibitor] |
